Experimental findings from the supplement of paper PMC10369915 are described below.

Common to all, as to experiment: enrichment score (SH2-bound / input frequency) (ratio); bacterial display of known human phosphotyrosine sites (pTyr-Var adds point mutants) read by sequencing; higher = stronger binding; tyrosines were phosphorylated by kinases first
Holding throughout (conditions): peptide library: pTyr-Var

The target of experiment [1] is SHP2 C-SH2 domain E139D.
Experiment [2] addresses SHP2 C-SH2 domain wild-type.
The target of experiment [3] is SHP2 N-SH2 domain L43F.
Experiment [4] concerns the target SHP2 N-SH2 domain T42A.
In experiment [5] the target is SHP2 N-SH2 domain T52S.
In experiment [6] the target is SHP2 N-SH2 domain wild-type.

Some of the results follow. No stated cut-off is given here; in the data, active = 3.2 or more and inactive = the rest. Most of these values are background signal.
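Further: displayed peptides selected on beads carrying the immobilized SH2 domain, with library peptides lacking any tyrosine serving as negative controls.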

B1: KRT1_Y358 (peptide)
chain: EVKAQYEDIAQ
In the case of B1, the enrichment score in experiment [1] is inactive: 0.652; in experiment [2] it was inactive: 0.43; in experiment [3], inactive: 0.511; in experiment [4], inactive: 0.457; in experiment [5], inactive: 0.447; in experiment [6], inactive: 0.57.

B2: KMT2D_Y2378_YF (peptide)
chain: SFTDPYAQPPL
Consider B2, for which the enrichment score in experiment [1] is inactive: 0.537; in experiment [2] it was inactive: 0.567; in experiment [3], inactive: 0.591; in experiment [4], inactive: 0.496; in experiment [5] it was inactive: 0.562; in experiment [6], inactive: 0.559.

B3: KNSTRN_Y87_P92S (peptide)
chain: VVKTVYSLQPS
With B3, the enrichment score in experiment [1] was inactive: 0.746; in experiment [2], inactive: 1.14; in experiment [3], inactive: 0.86; in experiment [4], inactive: 0.72; in experiment [5], inactive: 0.918; in experiment [6] it was inactive: 0.911.

B4: KMT2B_Y1707 (peptide)
chain: VLRRVYVDFEG
On to B4, for which the enrichment score in experiment [1] is inactive: 0.839; in experiment [2] it was inactive: 0.786; in experiment [3], inactive: 0.817; in experiment [4], inactive: 0.75; in experiment [5] it was inactive: 0.885; in experiment [6], inactive: 0.789.

B5: KNL1_Y489_A486S_YF (peptide)
chain: NFSKMYCNPDA
On to B5, for which the enrichment score is inactive: 0.911 in experiment [1]; inactive: 0.733 in experiment [2]; inactive: 0.594 in experiment [3]; inactive: 0.667 in experiment [4]; inactive: 0.818 in experiment [5]; inactive: 0.681 in experiment [6].

B6: KRT1_Y532 (peptide)
chain: SGGSSYGSGGG
Consider B6, for which the enrichment score in experiment [1] was inactive: 0.466; in experiment [2], inactive: 0.468; in experiment [3] it was inactive: 0.419; in experiment [4], inactive: 0.529; in experiment [5] it was inactive: 0.434; in experiment [6] it was inactive: 0.677.

B7: KRAS_Y32_P34Q (peptide)
chain: HFVDEYDQTIE
B7: the enrichment score in experiment [1] was inactive: 0.766; in experiment [2], inactive: 0.721; in experiment [3] it was inactive: 0.906; in experiment [4] it was inactive: 0.542; in experiment [5], inactive: 0.428; in experiment [6] it was inactive: 0.831.

B8: KRAS_Y32_I36M (peptide)
chain: HFVDEYDPTME
Take B8: the enrichment score is inactive: 0.767 in experiment [1]; inactive: 1.07 in experiment [2]; inactive: 0.699 in experiment [3]; inactive: 0.619 in experiment [4]; inactive: 0.696 in experiment [5]; inactive: 0.954 in experiment [6].

B9: KMT2D_Y2378_P2382S_YF (peptide)
chain: SFTDPYAQPSL
For B9, the enrichment score in experiment [1] was inactive: 0.631; in experiment [2], inactive: 0.534; in experiment [3], inactive: 0.705; in experiment [4], inactive: 0.526; in experiment [5] it was inactive: 0.659; in experiment [6], inactive: 0.564.

B10: KRT10_Y160_R156H (peptide)
chain: DHLASYLDKVR
For B10, the enrichment score in experiment [1] was inactive: 1.3; in experiment [2] it was inactive: 1.01; in experiment [3] it was inactive: 1.05; in experiment [4], inactive: 0.938; in experiment [5], inactive: 1.12; in experiment [6], inactive: 1.11.

B11: KRT1_Y358_Y358N (peptide)
chain: EVKAQNEDIAQ
As to B11, the enrichment score in experiment [1] is inactive: 0.57; in experiment [2] it was inactive: 0.4; in experiment [3], inactive: 0.345; in experiment [4], inactive: 0.443; in experiment [5], inactive: 0.851; in experiment [6] it was inactive: 0.516.

B12: KRT10_Y160_R156S (peptide)
chain: DSLASYLDKVR
For B12, the enrichment score in experiment [1] is inactive: 1.09; in experiment [2] it was inactive: 0.833; in experiment [3], inactive: 0.981; in experiment [4] it was inactive: 0.75; in experiment [5], inactive: 0.905; in experiment [6], inactive: 1.01.

B13: KMT2D_Y2378 (peptide)
chain: SYTDPYAQPPL
With B13, the enrichment score in experiment [1] is inactive: 0.611; in experiment [2] it was inactive: 0.6; in experiment [3] it was inactive: 0.534; in experiment [4], inactive: 0.406; in experiment [5], inactive: 0.583; in experiment [6], inactive: 0.608.

B14: KRT1_Y539_G537C (peptide)
chain: SGGCSYGSGGG
Regarding B14, the enrichment score in experiment [1] is inactive: 0.567; in experiment [2], inactive: 0.732; in experiment [3] it was inactive: 0.655; in experiment [4], inactive: 0.679; in experiment [5] it was inactive: 0.529; in experiment [6], inactive: 0.973.

B15: KRT10_Y160_Y160D (peptide)
chain: DRLASDLDKVR
As to B15, the enrichment score is inactive: 0.831 in experiment [1]; inactive: 0.789 in experiment [2]; inactive: 0.72 in experiment [3]; inactive: 0.638 in experiment [4]; inactive: 0.639 in experiment [5]; inactive: 0.847 in experiment [6].

B16: KMT2D_Y5349 (peptide)
chain: KILTHYKRPHT
As to B16, the enrichment score is active: 3.41 in experiment [1]; inactive: 2.79 in experiment [2]; inactive: 3.11 in experiment [3]; inactive: 2.89 in experiment [4]; active: 3.37 in experiment [5]; active: 3.28 in experiment [6].

B17: KLK2_Y249_R250W (peptide)
chain: TKVVHYWKWIK
As to B17, the enrichment score is inactive: 2.88 in experiment [1]; inactive: 2.94 in experiment [2]; active: 3.65 in experiment [3]; active: 3.69 in experiment [4]; inactive: 3.11 in experiment [5]; inactive: 2.84 in experiment [6].

B18: KRAS_Y64_Q61R (peptide)
chain: AGREEYSAMRD
Turning to B18, the enrichment score was inactive: 0.523 in experiment [1]; inactive: 0.574 in experiment [2]; inactive: 0.488 in experiment [3]; inactive: 0.372 in experiment [4]; inactive: 0.436 in experiment [5]; inactive: 0.579 in experiment [6].

B19: KRT10_Y160 (peptide)
chain: DRLASYLDKVR
Take B19: the enrichment score in experiment [1] is inactive: 0.935; in experiment [2] it was inactive: 0.996; in experiment [3] it was inactive: 0.998; in experiment [4], inactive: 0.864; in experiment [5] it was inactive: 0.878; in experiment [6], inactive: 0.89.
